Experimental data taken from the supplement of paper PMC10369915.
This is one part of the list. No stated cut-off is given here; in the data, active = 3.2 or more and inactive = the rest. Only a few entries rise above the background.

Experiments:
Experiment in all cases: enrichment score (SH2-bound / input frequency) (ratio); bacterial display of known human phosphotyrosine sites (pTyr-Var adds point mutants) read by sequencing; higher = stronger binding; tyrosines were phosphorylated by kinases first
Conditions in all cases: peptide library: pTyr-Var
SHP2 C-SH2 domain E139D = molecular target: SHP2 C-SH2 domain E139D
[1] = molecular target: SHP2 C-SH2 domain wild-type
SHP2 N-SH2 domain L43F = molecular target: SHP2 N-SH2 domain L43F
SHP2 N-SH2 domain T42A = molecular target: SHP2 N-SH2 domain T42A
SHP2 N-SH2 domain T52S = molecular target: SHP2 N-SH2 domain T52S
[2] = molecular target: SHP2 N-SH2 domain wild-type
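Further: displayed peptides selected on beads carrying the immobilized SH2 domain, with library peptides lacking any tyrosine serving as negative controls.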

Row | Binder | enrichment score (SHP2 C-SH2 domain E139D) | enrichment score [1] | enrichment score (SHP2 N-SH2 domain L43F) | enrichment score (SHP2 N-SH2 domain T42A) | enrichment score (SHP2 N-SH2 domain T52S) | enrichment score [2]
1 | DGFIDYAEFAK [MCFD2_Y138_YF] | inactive: 0.927 | inactive: 0.674 | inactive: 0.734 | inactive: 0.723 | inactive: 0.716 | inactive: 0.793
2 | CEETFYTMKMN [MASP2_Y401_V405M] | inactive: 1.06 | inactive: 1.5 | inactive: 1.11 | inactive: 1.02 | inactive: 0.945 | inactive: 1.66
3 | EERNPYFSSAR [MCCC2_Y520_G517R_YF] | inactive: 0.559 | inactive: 0.516 | inactive: 0.572 | inactive: 0.468 | inactive: 0.398 | inactive: 0.686
4 | ETWHNYHKFDS [MATR3_Y243_S240W] | inactive: 0.993 | inactive: 0.587 | inactive: 0.796 | inactive: 0.58 | inactive: 0.932 | inactive: 0.688
5 | KNNDGYIDYAE [MCFD2_Y135] | inactive: 0.423 | inactive: 0.535 | inactive: 0.522 | inactive: 0.45 | inactive: 0.584 | inactive: 0.543
6 | KNNDGYTDFAE [MCFD2_Y135_I136T_YF] | inactive: 0.541 | inactive: 0.433 | inactive: 0.465 | inactive: 0.508 | inactive: 0.578 | inactive: 0.526
7 | PSVVAYPKRSQ [MARK3_Y432] | inactive: 0.528 | inactive: 0.616 | inactive: 0.608 | inactive: 0.364 | inactive: 0.701 | inactive: 0.391
8 | EEGNPYYSGAR [MCCC2_Y520_S523G] | inactive: 0.67 | inactive: 0.52 | inactive: 0.484 | inactive: 0.566 | inactive: 0.573 | inactive: 0.499
9 | SLGKGYFDGGC [MC4R_Y35_S36Y_YF] | inactive: 0.723 | inactive: 0.657 | inactive: 0.686 | inactive: 0.663 | inactive: 0.664 | inactive: 0.861
10 | TEYSQYMRRKN [MAX_Y73_I71S] | inactive: 0.361 | inactive: 0.418 | inactive: 0.297 | inactive: 0.292 | inactive: 0.575 | inactive: 0.201
11 | TEYIQYMRRKN [MAX_Y73] | inactive: 0.0383 | inactive: 0.0913 | inactive: 0.0591 | inactive: 0.116 | inactive: 0.44 | inactive: 0.504
12 | IHADIYRWFNI [MARS1_Y344] | active: 3.5 | inactive: 3.16 | active: 3.3 | inactive: 2.9 | inactive: 2.76 | active: 3.61
13 | FGHTFYNQAIM [MCCC2_Y196_R193H] | inactive: 1.48 | inactive: 1.2 | inactive: 1.19 | inactive: 1.29 | inactive: 1.24 | inactive: 1.11
14 | GSPAPYRRRKR [MBD1_Y403_P401A] | inactive: 0.252 | inactive: 0.191 | inactive: 0.235 | inactive: 0.326 | inactive: 0.199 | inactive: 0.238
15 | YDGGCYEQLFV [MC4R_Y41_S36Y] | inactive: 0.959 | inactive: 1.01 | inactive: 1.26 | inactive: 0.989 | inactive: 0.827 | inactive: 1.41
16 | FLGKGYSDGGC [MC4R_Y35_S30F] | inactive: 0.612 | inactive: 0.753 | inactive: 0.767 | inactive: 0.536 | inactive: 0.804 | inactive: 0.622
17 | DKATEYIQYMR [MAX_Y70] | inactive: 0.917 | inactive: 0.829 | inactive: 0.752 | inactive: 0.691 | inactive: 0.715 | inactive: 0.821
18 | DGFTDYAEFAK [MCFD2_Y138_I136T_YF] | inactive: 0.837 | inactive: 0.67 | inactive: 0.644 | inactive: 0.645 | inactive: 0.639 | inactive: 0.853
19 | VKGGAYNPVTV [MCCC2_Y145_Y146N] | inactive: 0.804 | inactive: 0.706 | inactive: 0.786 | inactive: 0.676 | inactive: 0.692 | inactive: 0.903

Row | Binder | enrichment score (SHP2 C-SH2 domain E139D) | enrichment score [1] | enrichment score (SHP2 N-SH2 domain L43F) | enrichment score (SHP2 N-SH2 domain T42A) | enrichment score (SHP2 N-SH2 domain T52S) | enrichment score [2]
20 | KNNDGYTDYAE [MCFD2_Y135_I136T] | inactive: 0.504 | inactive: 0.575 | inactive: 0.524 | inactive: 0.497 | inactive: 0.49 | inactive: 0.495
21 | IHADICRWFNI [MARS1_Y344_Y344C] | inactive: 1.4 | inactive: 1.87 | inactive: 1.19 | inactive: 1.31 | inactive: 1.37 | inactive: 1.83
22 | DGNIDYAEFAK [MCFD2_Y138_Y135N] | inactive: 0.696 | inactive: 0.612 | inactive: 0.554 | inactive: 0.455 | inactive: 0.684 | inactive: 0.472
23 | ETSHNYHKFDS [MATR3_Y243] | inactive: 0.669 | inactive: 0.658 | inactive: 0.767 | inactive: 0.727 | inactive: 0.758 | inactive: 0.709
24 | PSAVAYPKRSQ [MARK3_Y432_V429A] | inactive: 0.44 | inactive: 0.483 | inactive: 0.392 | inactive: 0.565 | inactive: 0.522 | inactive: 0.524
25 | TEYIQYVRRKN [MAX_Y73_M74V] | inactive: 0.203 | inactive: 0.223 | inactive: 0.268 | inactive: 0.254 | inactive: 0.213 | inactive: 0.157
26 | EERNPYYSSAR [MCCC2_Y520_G517R] | inactive: 0.585 | inactive: 0.449 | inactive: 0.453 | inactive: 0.468 | inactive: 0.534 | inactive: 0.603
27 | QLQTTYPSSDN [MAX_Y115_N114T] | inactive: 0.681 | inactive: 0.531 | inactive: 0.528 | inactive: 0.802 | inactive: 0.864 | inactive: 0.527
28 | DKATEYIQFVR [MAX_Y70_M74V_YF] | inactive: 0.653 | inactive: 0.61 | inactive: 0.64 | inactive: 0.631 | inactive: 0.663 | inactive: 0.601
29 | EEGNPSYSSAR [MCCC2_Y520_Y520S] | inactive: 0.51 | inactive: 0.508 | inactive: 0.49 | inactive: 0.568 | inactive: 0.432 | inactive: 0.58
30 | KDQGGYTMHQD [MAPT_Y29] | inactive: 0.663 | inactive: 0.53 | inactive: 0.608 | inactive: 0.574 | inactive: 0.612 | inactive: 0.698
31 | CDIPRYIVSQL [MAST2_Y461] | inactive: 0.894 | inactive: 0.892 | inactive: 0.848 | inactive: 0.769 | inactive: 0.877 | inactive: 1.18
32 | GPTLSYGRDGR [MATR3_Y158] | inactive: 0.556 | inactive: 0.704 | inactive: 0.682 | inactive: 0.55 | inactive: 0.599 | inactive: 0.734
33 | FGRTFYNQAIM [MCCC2_Y196] | inactive: 1.43 | inactive: 1.57 | inactive: 1.13 | inactive: 1.3 | inactive: 0.975 | inactive: 1.3
34 | VKGGAYYPVTV [MCCC2_Y145] | inactive: 0.757 | inactive: 0.629 | inactive: 0.565 | inactive: 0.807 | inactive: 0.77 | inactive: 0.921
35 | SLGKGYSDGGC [MC4R_Y35] | inactive: 0.719 | inactive: 0.743 | inactive: 0.603 | inactive: 0.508 | inactive: 0.501 | inactive: 0.786
36 | VKGGAYFPVTV [MCCC2_Y145_YF] | inactive: 0.833 | inactive: 0.773 | inactive: 0.641 | inactive: 0.708 | inactive: 0.743 | inactive: 0.891
37 | CLLHCYFSQIR [MCM3AP_Y873] | active: 3.2 | inactive: 3 | inactive: 3.11 | inactive: 2.45 | inactive: 2.81 | active: 3.37
